# Measurements: US20250236878A1 (priority 2019, published 2025)
# Read-outs that look alike come from different tables or passages of the source.
# Assays:
# [1] = for A540 60 min post-treatment: n = 3
# [2] = A540 30 min post-treatment, 37° C., citrate buffer pH 4.9 (Table 55)
# [3] = for A540 10 min post-treatment: starch
# [4] = Table 54 Treatments A-D, 10 min post-treatment
# [5] = Table 54 Treatments A-D, Treatment A = α-amylase from Bacillus licheniformis (SEQ ID NO: 735), 33 U/mL alone
# [6] = Table 54 Treatments A-D, enzymes 33 U/mL, L-Cysteine 0.013 mg/mL, 1× PBS, pH 6.9
# [7] = Table 54 Treatments E-G, with cell supernatant from Bacillus subtilis 168
Molecule,A540 60 min post-treatment [1],"Blank subtracted A540 [3, 4]","Change relative to Treatment A [3, 5] [×]","A540 10 min post-treatment [3, 6]",also measured
"SEQ ID NO: 735: starch-degrading α-amylase from Bacillus licheniformis (protein, listed as Bacillus licheniformis) MKQQKRLYARLLPLLFALIFLLPHSATAAANLNGTLMQYFEWYMPNDGQHWKRLQNDSAYLAEHGITAVWIPPAYKGTSQDDVGYGAYDLYDLGEFHQKGTVRTKYGTKGELQSAINSLHSRGINVYGDVVINHKGGADATEDVTAVEVDPADRNRVTSGEQRIKAWTHFQFPGRGSTYSDFKWHWYHFDGTDWDESRKLNRIYKFQGKAWDWEVSNENGNYDYLMYADIDYDHPDVTAEIKRWGTWYANELQLDGFRLDAVKHIKFSFLRDWVNHVREKTGKEMFTVAEYWQNDLGALENYLNKTNFNHSVFDVPLHYQFHAASTQGGGYDMRKLLNGTVVSKHPVKAVTFVDNHDTQPGQSLESTVQTWFKPLAYAFILTREAGYPQIFYGDMYGTKGASQREIPALKHKIEPILKARIQYAYGAQHDYFDHHDIVGWTREGDSSVANSGLAALITDGPGGTKRMYVGRQNAGETWHDITGNRSDSVVINAEGWGEFHVNGGSVSIYVQR",–,–,–,–,"glucanase response compared with β-1,3-D-glucanase alone (Treatment A) ([1]; pH 4.9): did not show additional glucanase activity"
"SEQ ID NO: 776: β-1,3-D-glucanase (protein, Paenibacillus sp IAM1165) APNWNLVWSDEFNGTSLNRANWTPEIGTGSGGWGNNELQYYTDRAQNVQVTGGNLVITAQKESYGGMNYTSARIKTQDLKSFTYGKVEARIKLPSGQGLWPAFWMLGSNISSVGWPKSGEIDIMERVNNNPYVNGTVHWDAGGHADFGRVSGNLDFSQFHVYSIEWDSKYIRWFVDGQQFNEFYIENGTGNTEEFQRPFFILLNLAVGGNWPGSPNNSTPFPSQMLVDYVRVYQDTGASNVISDGIYTIASKASGKVMDVVDVSTARGAKIQQWTNYVANNQRFRVESTGDGYYKLTAVHSGKVLDVPSSSTSTGVQLQQWDDNGSNAQRWKIVDVGGGYYKLVSKVSGLAVDVASASTADGAVVQQWTDNGTDAQKWLFTKIN",–,–,–,–,activity on CM-pachyman from Poria cocos [2]: have activity
"β-1,3-D-glucanase (QLK1) from Kitasatospora phosalacinea strain SYBCQL (SEQ ID NO: 773) (protein, listed as Kitasatospora phosalacinea) ATTPLAAAPVAAGNWGDDFDGPAGAAVDPAKWTLETGGSGNGNHELQYYTAGAANAALDGQGHLVITAKRNTDPGLSCWYGTCQYTSARLNTSRTFTQAYGHFESRIKIPRGQGIWPAFWMLGNDLGTAGWPNSGEIDVMENIGREPGTVHGTIHGPGYSGAGGIGAPYSLPAGQSFADAFHTFAVDWSPTAITWSVDGTAYQTRTPADLGGNRWVFDHPFFVILNLAVGGDWPGSPDGSSTYPQTMTVDYVHTTTWGGSTGGSYTGQITGPGGMCMDVAGASSADSTPIQLHNCTGNAAQQWTVGADGTVRALGKCLDVAAASHNDGAAIQLYTCNGTSAQQWTHRSGNDLLNPGSGKCLDSPNGSSADGTHLQLWTCNGTGAQKWTLG",–,–,–,–,"Blank subtracted A540 ([1]; β-1,3-glucan from Euglena gracilis, 30 min post-treatment): 0.307"
"α-amylase from Bacillus licheniformis (SEQ ID NO: 735) (protein, listed as Bacillus licheniformis) MKQQKRLYARLLPLLFALIFLLPHSATAAANLNGTLMQYFEWYMPNDGQHWKRLQNDSAYLAEHGITAVWIPPAYKGTSQDDVGYGAYDLYDLGEFHQKGTVRTKYGTKGELQSAINSLHSRGINVYGDVVINHKGGADATEDVTAVEVDPADRNRVTSGEQRIKAWTHFQFPGRGSTYSDFKWHWYHFDGTDWDESRKLNRIYKFQGKAWDWEVSNENGNYDYLMYADIDYDHPDVTAEIKRWGTWYANELQLDGFRLDAVKHIKFSFLRDWVNHVREKTGKEMFTVAEYWQNDLGALENYLNKTNFNHSVFDVPLHYQFHAASTQGGGYDMRKLLNGTVVSKHPVKAVTFVDNHDTQPGQSLESTVQTWFKPLAYAFILTREAGYPQIFYGDMYGTKGASQREIPALKHKIEPILKARIQYAYGAQHDYFDHHDIVGWTREGDSSVANSGLAALITDGPGGTKRMYVGRQNAGETWHDITGNRSDSVVINAEGWGEFHVNGGSVSIYVQR",0.383,0.406,1.0,0.590,–
"β-1,3-D-glucanase from Hordeum vulgare (SEQ ID NO: 731) (protein, Hordeum vulgare) GVCYGVIGNNLPSRSDVVQLYRSKGINGMRIYFADGQALSALRNSGIGLILDIGNDQLANIAASTSNAASWVQNNVRPYYPAVNIKYIAAGNEVQGGATQSILPAMRNLNAALSAAGLGAIKVSTSIRFDEVANSFPPSAGVFKNAYMTDVARLLASTGAPLLANVYPYFAYRDNPGSISLNYATFQPGTTVRDQNNGLTYTSLFDAMVDAVYAALEKAGAPAVKVVVSESGWPSAGGFAASAGNARTYNQGLINHVGGGTPKKREALETYIFAMFNENQKTGDATERSFGLFNPDKSPAYNIQF",0.522,0.030,0.07,0.214,–
"α-amylase from Bacillus subtilis 168 (SEQ ID NO: 734) (protein, listed as Bacillus subtilis) ETANKSNELTAPSIKSGTILHAWNWSFNTLKHNMKDIHDAGYTAIQTSPINQVKEGNQGDKSMSNWYWLYQPTSYQIGNRYLGTEQEFKEMCAAAEEYGIKVIVDAVINHTTSDYAAISNEVKSIPNWTHGNTQIKNWSDRWDVTQNSLLGLYDWNTQNTQVQSYLKRFLDRALNDGADGFRFDAAKHIELPDDGSYGSQFWPNITNTSAEFQYGEILQDSASRDAAYANYMDVTASNYGHSIRSALKNRNLGVSNISHYASDVSADKLVTWVESHDTYANDDEESTWMSDDDIRLGWAVIASRSGSTPLFFSRPEGGGNGVRFPGKSQIGDRGSALFEDQAITAVNRFHNVMAGQPEELSNPNGNNQIFMNQRGSHGVVLANAGSSSVSINTATKLPDGRYDNKAGAGSFQVNDGKLTGTINARSVAVLYPDDIAKAPHVFLENYKTGVTHSFNDQLTITLRADANTTKAVYQINNGPETAFKDGDQFTIGKGDPFGKTYTIMLKGTNSDGVTRTEKYSFVKRDPASAKTIGYQNPNHWSQVNAYIYKHDGSRVIELTGSWPGKPMTKNADGIYTLTLPADTDTTNAKVIFNNGSAQVPGQNQPGFDYVLNGLYNDSGLSGSLPH",–,–,–,–,"A540 10 min post-treatment ([3]; Table 54 Treatments E-G, amylase 60 U/mL, 2-DDG 6.94 mg/mL, with cell supernatant from Bacillus subtilis 168): 0.374; Blank subtracted A540 [3, 7]: 0.190; Change relative to Treatment A [3, 7]: 1.0×"
